Measured values as given in the supplement of paper PMC7125110.
± gives the standard error. Variants at the floor of the assay are shown more often than the library holds them.

B1: glmS ribozyme (parent)
chain: AUAAAAGCGCCAGAACUACAGAAAUGUAGUUGACGAGGAGGAGGUUUAUCGAAUUUUCGGCGGAUGCCUCCAAA

How the values were obtained:
Details in all cases: with glucosamine-6-phosphate
[1] = variants of: B1; experiment: self-cleavage kobs at 40 uM GlcN6P; higher = faster cleavage; RNA array
How it was run: (§1)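 Glucosamine-6-phosphate, from 40 μM to 10 mM in HEPES/KCl/Mg(OAc)2 buffer, was flowed over sequenced MiSeq chips carrying barcoded ribozyme variants transcribed in situ by E. coli RNA polymerase. A hybridised Cy3 probe tracked the variants at 37 °C as tiles were imaged over ~14 h. kobs, kcat and KM were obtained by fitting normalised per-tile medians to exponential decays and then applying weighted Michaelis–Menten fits across concentrations.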

[2] = variants of: B1; experiment: self-cleavage kobs at 640 uM GlcN6P; higher = faster cleavage; RNA array
How it was run: as §1

[3] = variants of: B1; experiment: self-cleavage kobs at 2500 uM GlcN6P; higher = faster cleavage; RNA array
How it was run: as §1

[4] = variants of: B1; experiment: self-cleavage kobs at 10000 uM GlcN6P; higher = faster cleavage; RNA array
How it was run: as §1

[5] = variants of: B1; experiment: self-cleavage kobs at 160 uM GlcN6P; higher = faster cleavage; RNA array
How it was run: as §1

Variant | self-cleavage kobs at 40 uM GlcN6P [1] [s⁻¹] | self-cleavage kobs at 640 uM GlcN6P [2] [s⁻¹] | self-cleavage kobs at 2500 uM GlcN6P [3] [s⁻¹] | self-cleavage kobs at 10000 uM GlcN6P [4] [s⁻¹] | self-cleavage kobs at 160 uM GlcN6P [5] [s⁻¹]
C11A G35U U56A | < 1e-05 |  |  |  | 
C11A A39G A52U C67U | < 1e-05 | < 1e-05 | < 1e-05 |  | 
C10U G13A A39U G60U | < 1e-05 |  |  |  | 
C10A C11A G51A | < 1e-05 |  | < 1e-05 | < 1e-05 | 
C11A G37A G38U | < 1e-05 |  |  | < 1e-05 | 
C10U G13C G40A | < 1e-05 |  |  |  | < 1e-05
C10A G38A G41C C68A | < 1e-05 |  |  |  | 
C10G G29U C50A G59A G63C | < 1e-05 |  |  |  | 
C10A G43A G59U | < 1e-05 |  |  | < 1e-05 | < 1e-05
G9U C16A U54G | < 1e-05 | < 1e-05 | < 1e-05 | < 1e-05 | 
C10U A48G | < 1e-05 |  | < 1e-05 | < 1e-05 | < 1e-05
G9U G66U | < 1e-05 |  |  | < 1e-05 | 
G9U G66C | < 1e-05 | < 1e-05 |  | < 1e-05 | < 1e-05
G9U C10U C11U G32A | < 1e-05 |  |  | < 1e-05 | 
C10G G13U C34A G35U G41U U49A | < 1e-05 |  |  |  | 
C10U U31A C34A A42G G51A | < 1e-05 |  |  |  | 
C10A A52U | < 1e-05 | < 1e-05 | < 1e-05 | < 1e-05 | < 1e-05
C11A G32U G62A G66U | < 1e-05 |  |  | < 1e-05 | 
C10U U45A C68G | < 1e-05 |  |  | < 1e-05 | 
C10G A39U A48G A52C C68A | < 1e-05 |  | < 1e-05 |  | 
C10U G38A U47A | < 1e-05 | < 1e-05 | < 1e-05 |  | 
C10G C50G G63A C71U | 6.86e-05 ± 1.9e-05 |  |  |  | 
C10G A12C G37C | < 1e-05 |  |  |  | 
C10G U49A A52G A64C | < 1e-05 |  | < 1e-05 | < 1e-05 | 
C10U A15C G43U C50U U57G G59A | < 1e-05 |  |  |  | 
C10U A52U A53U C68U | < 1e-05 |  |  | < 1e-05 | 
C11A G51C | < 1e-05 |  |  | < 1e-05 | 
C11A G51A | < 1e-05 | < 1e-05 |  | < 1e-05 | 
